PubChem BioAssay AID588795 (National Center for Advancing Translational Sciences (NCATS), 2011)
The whole screen tested about 390,000 compounds, of which about 1,400 (0.36%) were called active. Inconclusive results, whose numbers are uncertain, are shown with a selection of clear calls. Calls come from the whole dose curve; as a rule, active = well fitted inhibition curve with a large enough effect; inconclusive = small, poorly fitted or top-dose-only effect; inactive = no such curve, though single readings can be large or run the other way. Where the call is inconclusive, the potency comes from a doubtful curve fit.

The compounds below were run against Flap endonuclease 1 (Homo sapiens) (UniProt P39748) (assay: qHTS Assay for the Inhibitors of Human Flap endonuclease 1 (FEN1).). Details: Recombinant FEN1 flap cleavage, fluorescence, 15 min; series mostly up to 114 µM.
Sequence of UniProt P39748 (P39748 whole entry, looked up): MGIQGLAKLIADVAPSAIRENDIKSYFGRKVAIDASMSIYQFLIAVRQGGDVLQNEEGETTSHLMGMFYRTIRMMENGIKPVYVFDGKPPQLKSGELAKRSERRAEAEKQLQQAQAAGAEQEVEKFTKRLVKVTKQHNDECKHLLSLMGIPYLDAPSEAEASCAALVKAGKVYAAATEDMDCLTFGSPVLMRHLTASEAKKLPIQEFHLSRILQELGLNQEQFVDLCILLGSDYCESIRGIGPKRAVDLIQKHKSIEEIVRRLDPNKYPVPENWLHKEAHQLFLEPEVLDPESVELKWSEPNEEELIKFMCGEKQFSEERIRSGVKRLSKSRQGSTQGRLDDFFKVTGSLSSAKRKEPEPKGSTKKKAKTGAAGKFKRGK
How it was run: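 Nuclease activity of 10 nM FEN1 was measured after 15 min of room-temperature exposure to titrated compounds, by adding 50 nM flap substrate and reading plates at 0 and 15 min.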
Note: nearly all actives have a fitted effect of over 65% in size.
Potency is the fitted concentration of half-maximal effect; tags give direction and shape of the fitted curve.

Row | Structure (SMILES) | Potency
1 | CCCCC(CC)CN=C(N)NC(N)=NCCCCCCN=C(N)NC(N)=NCC(CC)CCCC (stereo not given) | active: 50.1 µM
2 | Cn1nc(C(=O)Nc2nc(-c3ccccn3)cs2)c2ccccc2c1=O | inactive
3 | COc1cc(-c2nc3ccccn3c2/N=C/c2cccc(F)c2)ccc1O | inactive
4 | Nc1cc(-c2ccccc2)nn1S(=O)(=O)c1ccc(Br)cc1 | inconclusive: 79.4 µM [inhibitor, partial curve, poor fit]
5 | O=C(Nc1ccc2nc(-c3ccco3)c(-c3ccco3)nc2c1)N1CCCC1 | active: 11.2 µM
6 | CC1=NN(c2ccc(C)cc2C)C(=O)C1C(c1ccccc1)C1C(=O)N(c2ccc(C)cc2C)N=C1C (stereo not given) | inconclusive: 50.1 µM [inhibitor, partial curve, poor fit]
7 | O=C(COC(=O)/C=C/c1ccc(S(=O)(=O)N2CCOCC2)cc1)NCc1ccc(F)cc1 | inactive
8 | CCOCc1c(C(=O)N2CCN(Cc3ccc(Br)s3)CC2)oc2ccccc12 | inconclusive: 50.1 µM [inhibitor, partial curve, poor fit]
9 | O=C1C=C(NCCc2cc(Br)c(O)c(Br)c2)C(=O)c2ncccc21 | active: 44.7 µM
10 | COc1cc2c(NC3CCN(C)CC3)nc(N3CCCN(C)CC3)nc2cc1OCCCCC(N)=O | inconclusive: 39.8 µM [inhibitor, partial curve]
11 | CCN1CCCC1CNC(=O)c1ccc2c(c1)NC(=O)/C(=C\c1ccc(OC)c(OC)c1)S2 (stereo not given) | inconclusive: 14.1 µM [inhibitor, full curve, poor fit]
12 | Cc1ccc(C(=O)c2sc(Nc3ccc(F)cc3)nc2N)c(C)c1 | inactive
13 | CC(NC(=O)/C(C#N)=C/c1ccc([N+](=O)[O-])o1)c1ccccc1 (stereo not given) | inconclusive: 31.6 µM [inhibitor, partial curve, poor fit]
14 | O=C(COC(=O)c1ccc([N+](=O)[O-])s1)NCc1ccccc1 | inconclusive: 35.5 µM [inhibitor, partial curve, poor fit]
15 | COc1cc(/C=C2\CC(C(C)(C)C)C/C(=C\c3cc(OC)c(OC)c(OC)c3)C2=O)cc(OC)c1OC (stereo not given) | inconclusive: 31.6 µM [inhibitor, partial curve, poor fit]
16 | COc1ccc(/C=N\NC(=O)COc2ccccc2Cl)cc1Cn1nc(C)cc1C | inconclusive: 89.1 µM [inhibitor, single point]
17 | O=C1c2cccc3cccc(c23)C(=O)N1OS(=O)(=O)c1ccc(Br)cc1 | inconclusive: 39.8 µM [inhibitor, partial curve]
18 | COc1ccc(OC)c(-c2csc(NC(=O)Cc3ccc(OC)c(OC)c3)n2)c1 | inconclusive: 89.1 µM [inhibitor, partial curve, poor fit]
19 | O=c1[nH]c2ccccc2c(O)c1-c1ccccc1 | inactive
20 | COc1cc(SC)ccc1C(=O)N1CCC(Cc2ccccc2)CC1 | inconclusive: 4.74 µM [inhibitor, single point]
21 | CSCCOC(=O)COc1ccc(/C=N/NC(=O)c2c(Cl)cnn2C)cc1 | inactive
22 | Cc1ccc(C(=O)N/C(=C/c2ccc(-c3ccc([N+](=O)[O-])cc3)o2)C(=O)NCCCN(C)C)cc1 | inconclusive: 50.1 µM [inhibitor, partial curve, poor fit]

Row | Structure (SMILES) | Potency
23 | Cc1ccc2c(c1)sc(-c1ccc(N(C)C)cc1)[n+]2C | inconclusive: 14.1 µM [inhibitor, full curve, poor fit]
24 | CCOc1ccc(CCNC(=O)C2CC=CCC2C(=O)OC(C)C)cc1OCC (stereo not given) | inactive
25 | O=C(COc1ccccc1/C=C\c1nc(O)c([N+](=O)[O-])c(=O)[nH]1)Nc1ccccc1 | inactive
26 | CNCCN(C)c1nc(-c2cccs2)nc2ccccc12 | inconclusive: 44.7 µM [inhibitor, partial curve]
27 | C=CCN1C(=O)/C(=C2/Sc3ccccc3N2CCCS(=O)(=O)O)SC1=S | inconclusive: 22.4 µM [inhibitor, full curve]
28 | CN(CCOC(=O)/C=C/c1ccco1)Cc1ccccc1 | inconclusive: 17.8 µM [inhibitor, full curve, poor fit]
29 | CCCn1c2ccccc2c2cnn(CC(=O)NCCCN(Cc3ccccc3)C(C)C)c(=O)c21 | inconclusive: 79.4 µM [inhibitor, partial curve, poor fit]
30 | COCCn1c(N)c(C(=O)NCc2cccs2)c2nc3ccccc3nc21 | inconclusive: 79.4 µM [inhibitor, partial curve]
31 | Cc1cc(N2CCN(C)CC2)ccc1NC(=O)c1c2c(nc3ccccc13)CCN(Cc1ccccc1)C2 | inconclusive: 56.2 µM [inhibitor, partial curve, poor fit]
32 | CCN(CC)c1ccc(/C=C2\C=Cc3ccccc32)cc1 | inactive
33 | Cc1cccc(-c2nc3ccccc3c(=O)n2N)c1 | inactive
34 | Cc1sc2ccc3sccc3c2[n+]1C | inconclusive: 89.1 µM [inhibitor, partial curve, poor fit]
35 | O/C=c1\ccc2cccc3nc(C(F)(F)F)nc1c23 | active: 79.4 µM
36 | O=C(O)C1=CC(=C(c2ccc(O)c(C(=O)O)c2)c2ccc(O)c(C(=O)O)c2)C=CC1=O | active: 0.794 µM
37 | O=C(NCCc1ccc(Cl)cc1)c1nc(-c2cccc(F)c2)n2c1CCCCC2 | inactive
38 | CCO[C@H]1OC(C(N)=O)=C[C@@H](C)[C@@H]1CCCO | inactive
39 | CCCCNc1c(-c2ccc(SC(C)CC)cc2)nc2ccccn12 (stereo not given) | inconclusive: 50.1 µM [inhibitor, partial curve, poor fit]
40 | CC(C)CN=c1cc(-c2ccccc2)oc2ccc(Cl)cc12 | inconclusive: 50.1 µM [inhibitor, partial curve]
41 | N=c1n(CCO)c2ccccc2n1CCOc1ccc(Cl)cc1Cl | inconclusive: 39.8 µM [inhibitor, partial curve, poor fit]
42 | NC(=O)c1sc2nc(-c3ccco3)ccc2c1N | inconclusive: 70.8 µM [inhibitor, single point]
43 | Cc1ccc2c(c1)[C@H]1[C@H](CO2)[C@H](c2ccccc2)[C@]2(C)C(=O)Nc3cc(F)c(F)cc3C(=O)N12 | inconclusive: 70.8 µM [inhibitor, partial curve, poor fit]
44 | CN(C)CCCn1c(N)c(C#N)c2nc3ccccc3nc21 | inconclusive: 50.1 µM [inhibitor, partial curve, poor fit]

Row | Structure (SMILES) | Potency
45 | COc1ccc(-c2nnc(Nc3nc4c(OC)cccc4s3)o2)cc1 | inconclusive: 50.1 µM [inhibitor, partial curve]
46 | Cc1csc2nc(CSc3nc4ccccc4o3)cn12 | inactive
47 | CCn1cc(C(=O)O)c(=O)c2cc(F)c(N3CCN(S(=O)(=O)c4ccc(NC(C)=O)cc4)CC3)cc21 | inconclusive: 70.8 µM [inhibitor, single point]
48 | CC(C)(C)OC(=O)N1CC=C2C(C#N)=C(N)C(C#N)(C#N)C(c3cccs3)C2C1 (stereo not given) | inconclusive: 89.1 µM [inhibitor, partial curve, poor fit]
49 | Cc1cn(-c2cc(NC(=O)c3ccc(C)c(NC(=O)c4cccc(-c5cn[nH]c(=O)c5)c4)c3)cc(C(F)(F)F)c2)cn1 | inconclusive: 39.8 µM [inhibitor, partial curve, poor fit]
50 | Cc1c(Cl)cccc1NC(=O)C(=O)NCC(c1cccnc1)N1CCN(c2ccccc2)CC1 (stereo not given) | inactive
51 | Clc1ccc(-c2cnnc(-c3ccccn3)n2)cc1 | inconclusive: 50.1 µM [inhibitor, partial curve, poor fit]
52 | CN(C)S(=O)(=O)c1cccc(COC(=O)C2=COCCO2)c1 | inconclusive: 39.8 µM [inhibitor, single point]
53 | CCc1nnc(NS(=O)(=O)c2ccc(NC(=O)c3ccccc3)cc2)s1 | inactive
54 | Cc1ccc(C)c(Cn2nnc3c(=O)[nH]c(C4CCCN(C(=O)C5CCC5)C4)nc32)c1 (stereo not given) | inconclusive: 79.4 µM [inhibitor, partial curve, poor fit]
55 | COc1cccc2sc3cc(C#Cc4ccccn4)ccc3c(=O)c12 | inactive
56 | CC(C#N)(Cc1ccccc1)Nc1ccccc1 (stereo not given) | inactive
57 | CC(=O)N1c2ccc(Cl)cc2C2C=CCC2C1c1cccc2ccccc12 (stereo not given) | inconclusive: 89.1 µM [inhibitor, single point]
58 | COc1cc2nc(Nc3ccc(F)cc3)nc(N)c2cc1OC | inconclusive: 89.1 µM [inhibitor, single point]
59 | COc1ccc(-c2[nH]ncc2-c2cnn(-c3ccccc3)c2)c(O)c1 | inconclusive: 89.1 µM [inhibitor, partial curve, poor fit]
60 | CC(C)=CCc1c2c(c3occ(-c4ccc(O)c(O)c4)c(=O)c3c1O)C=CC(C)(C)O2 | inconclusive: 44.7 µM [inhibitor, partial curve, poor fit]
61 | COc1ccccc1C1/C(=C(\O)c2ccc3c(c2)OCCO3)C(=O)C(=O)N1Cc1cccnc1 (stereo not given) | inconclusive: 4.47 µM [inhibitor, partial curve, poor fit]
62 | O/N=C(/CI)c1ccc2ccccc2c1 | inconclusive: 22.4 µM [inhibitor, single point]
63 | CCOC(=O)c1c(CSc2ccc(C)cc2)oc2ccc(O)cc12 | inconclusive: 50.1 µM [inhibitor, partial curve, poor fit]
64 | O=C(CN1C(=O)S/C(=C\c2ccccc2)C1=O)Nc1cc([N+](=O)[O-])ccc1O | inactive
65 | O=C(CSc1nnc(-c2ccco2)c(-c2ccco2)n1)Nc1ccccc1 | inconclusive: 56.2 µM [inhibitor, partial curve]
